Laboratory results as given in PMC7819943, “Rice protein-binding microarrays: a tool to detect cis-acting elements near promoter regions in rice”.
The list shows a part of the results.

target: T1, OsWOX13 (Oryza sativa, UniProt Q5QMM3 1-267); assay: protein-binding microarray (RPBM); PBS, 2% BSA, 51.3 ng/ul salmon testes DNA, 50 uM zinc acetate, 200 nM TF, 25 C, 1 h; high values mean tight binding; conditions: protein: recombinant; tags: N-terminal polyhistidine and DsRed monomer fusion (pET32a); label: CyDye5-dUTP incorporated in the synthesized complementary strand; 3' TTTTT single-stranded linker to array surface; dsDNA, one strand shown
T1 sequence: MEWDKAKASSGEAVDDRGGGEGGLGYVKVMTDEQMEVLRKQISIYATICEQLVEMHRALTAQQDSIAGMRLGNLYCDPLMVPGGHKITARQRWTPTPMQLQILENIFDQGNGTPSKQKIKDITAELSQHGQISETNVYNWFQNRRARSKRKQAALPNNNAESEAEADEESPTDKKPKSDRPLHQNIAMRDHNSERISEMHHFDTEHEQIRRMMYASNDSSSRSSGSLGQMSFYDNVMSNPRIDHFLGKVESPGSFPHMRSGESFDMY
How it was run: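 An Axon 4000B scanner gave the binding signal as per-feature fluorescence intensity in arbitrary units. This followed washing of a custom Agilent array that had been incubated for 1 h at 25 °C with 200 nM protein in PBS, 2% BSA, salmon testes DNA and 50 µM zinc acetate. The proteins were transcription factors fused at the N-terminus to polyhistidine and DsRed, expressed in E. coli BL21-CodonPlus and purified on Ni–NTA.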

Sequence | binding signal
TTTAGTTAGATTGGATAGTCATGTCGTAGTTCCATACCAACGGAGTCACCTAGTGCAG | 21800 fluorescence intensity (a.u.)
AAAACGTGACGACAATAACATTTATTTGTAACAACATATTCGGAGTCACCTAGTGCAG | 4060 fluorescence intensity (a.u.)
TAGATTGTTATAGATTTATTATACTGCTACTCCTATCACACGGAGTCACCTAGTGCAG | 14900 fluorescence intensity (a.u.)
AGACATGATTAATTTTAGTTTCCAAAGTTGAAAACAAACACGGAGTCACCTAGTGCAG | 18900 fluorescence intensity (a.u.)
AACTTATATAAGTTAAATTTAAACTTATATGTTTGTGGGGCGGAGTCACCTAGTGCAG | 4170 fluorescence intensity (a.u.)
TTTGGATTGAAGCCAAAATATGTCCATAAGAGACAAGTTCCGGAGTCACCTAGTGCAG | 7350 fluorescence intensity (a.u.)
TTCCGAATTTCAGTTATTTCCTAATTGTATTTCTATATGGCGGAGTCACCTAGTGCAG | 4550 fluorescence intensity (a.u.)
GATGATTAGTGGAGACCTGAGAGGGAGAGACCATGGAGTCCGGAGTCACCTAGTGCAG | 26900 fluorescence intensity (a.u.)
ATGCAAAATCACACCAATTAACTTTGAATATAATCATGTCCGGAGTCACCTAGTGCAG | 17900 fluorescence intensity (a.u.)
TATATTGACTATAAATAATTTAAAGATAGTAGTTGACTATCGGAGTCACCTAGTGCAG | 6120 fluorescence intensity (a.u.)
ATAATTAGGCCTTGACTGCAATAAAAGCTAAAACTTTGTTCGGAGTCACCTAGTGCAG | 29700 fluorescence intensity (a.u.)
ATCATAATGTGTATGCATGATTAGAGGGCGCAAATTTGTACGGAGTCACCTAGTGCAG | 14600 fluorescence intensity (a.u.)
TTTAAGATCATGATTAACATGACATTGAAGCATTACCACGCGGAGTCACCTAGTGCAG | 5610 fluorescence intensity (a.u.)
GAGCTAGCATTAATTTGTTGCAATCCTATGATGGATGGATCGGAGTCACCTAGTGCAG | 4630 fluorescence intensity (a.u.)
TAGGTAAAGTCAATCATCAATGACTTCATCACTTCACAGCCGGAGTCACCTAGTGCAG | 12400 fluorescence intensity (a.u.)
GTAAATTGAACAACGGTTGTAAAGCCAAAATAATACGCATCGGAGTCACCTAGTGCAG | 24400 fluorescence intensity (a.u.)
ATTGATTCTTAACAAATTAGTATTTGCAATTTGTGAGGGCCGGAGTCACCTAGTGCAG | 23600 fluorescence intensity (a.u.)
ACAGATTGCGTGTAAATTGCGAGACGAATCTTTTAAGTCTCGGAGTCACCTAGTGCAG | 29700 fluorescence intensity (a.u.)
CAGAATTAAGTTTAACAATTAGATTGTGTAATCATAATTGCGGAGTCACCTAGTGCAG | 12200 fluorescence intensity (a.u.)
GACTAGATTAATAGTAAACCACCTTAATAGTATGTCTACACGGAGTCACCTAGTGCAG | 7550 fluorescence intensity (a.u.)
CCATATCTTTAATTTATACTTAATTTATAAGACATATCTTCGGAGTCACCTAGTGCAG | 16100 fluorescence intensity (a.u.)

Sequence | binding signal
GCAACTTGGATGATTTGTTCTTGGATACTATGGCAGATGGCGGAGTCACCTAGTGCAG | 3690 fluorescence intensity (a.u.)
CTCCTGATTGGTCCGCCTCCTCCATCCTCGTCTCCACCCACGGAGTCACCTAGTGCAG | 36000 fluorescence intensity (a.u.)
TCCTCTAACTGTTCGTCATGCTCTGGATTTTGGTGGTGGCCGGAGTCACCTAGTGCAG | 3660 fluorescence intensity (a.u.)
AAAAGAGATGGATTGATCAACAAGCCTTAGATATTCTCCACGGAGTCACCTAGTGCAG | 6270 fluorescence intensity (a.u.)
TGCAATTTCTGTTTCGTTTATTTGTGATGTTTGTATTTATCGGAGTCACCTAGTGCAG | 4490 fluorescence intensity (a.u.)
CGTACTTACTAAATTAGGGCTAATTTCATCTTTAATTGCTCGGAGTCACCTAGTGCAG | 13000 fluorescence intensity (a.u.)
ACAGACATAAATACGATTGATTAAGTAGTAGCCTAGCTAACGGAGTCACCTAGTGCAG | 14600 fluorescence intensity (a.u.)
TGTAATTGGATGGAGGGCGACTTGTTCCATCCAGCCAAGACGGAGTCACCTAGTGCAG | 27000 fluorescence intensity (a.u.)
AGTTTACTATGATTGTCGTACTTTAACAATGGAGATGGGCCGGAGTCACCTAGTGCAG | 3980 fluorescence intensity (a.u.)
TTTTCTAATTATGTATGTCAAATTTGAACTTTATATGTCGCGGAGTCACCTAGTGCAG | 26000 fluorescence intensity (a.u.)
TGTTAATTGTAGCTGACTTCCAGAAGCATATTTGCTTTGTCGGAGTCACCTAGTGCAG | 26500 fluorescence intensity (a.u.)
GCACCGATTGGCGTTGTTGACAGGTTGGGCCCCAGCGCATCGGAGTCACCTAGTGCAG | 14200 fluorescence intensity (a.u.)
ATAGTAATTGGTACGCTTGAAATTCTGGACGCTATCTTTTCGGAGTCACCTAGTGCAG | 26200 fluorescence intensity (a.u.)
TCATAATTACAATGTAGTTCCAAGGCATGTTTGTCACGGCCGGAGTCACCTAGTGCAG | 20400 fluorescence intensity (a.u.)
ATAAGATTTGAAAATTACTTTTCAACAAATATTTAGTGAACGGAGTCACCTAGTGCAG | 7230 fluorescence intensity (a.u.)
GTGGCGTGCATTGTCAATCAGACGATCACCGTGGCTGCCCCGGAGTCACCTAGTGCAG | 6470 fluorescence intensity (a.u.)
TTTGAATATAATTCAAATTCAAATTTGAATCGGGTATATACGGAGTCACCTAGTGCAG | 3730 fluorescence intensity (a.u.)
TCAAATGAATTCTGTTCAAATTGAAGTCACGTACTCGGGCCGGAGTCACCTAGTGCAG | 3310 fluorescence intensity (a.u.)
AATGACAGGGAAACTGATAAAATCCTCTCTCATGATACTACGGAGTCACCTAGTGCAG | 15800 fluorescence intensity (a.u.)
GCGCGTGATGGAGATTACTTGCTCCCTTGCAACGCTAGCTCGGAGTCACCTAGTGCAG | 6870 fluorescence intensity (a.u.)
CTAACAATAATTTCTTCATTTCTTGCTTTTGCAGAGATTACGGAGTCACCTAGTGCAG | 4710 fluorescence intensity (a.u.)
